# The full ranking holds about 33,000 sequences; the median of “E-score (-0.5 to 0.5)” is about -0.053, and the highest 2% start at about 0.37. Some of the results follow.
# Molecular target: Hap1 (UniProt P0CE41)
# Assay: PBM E-score (8-mer binding enrichment) (E-score (-0.5 to 0.5)); higher = stronger / more preferred TF binding; most listed sequences are background and not binding sites
# Conditions: protein concentration: 200 nM; construct: GST-DNA-binding domain
# Experimental: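 Universal 'all 10-mer' protein binding microarrays (Agilent AMADID 015681) probed with GST-tagged S. cerevisiae TFs (full-length or DBD) made by in vitro transcription/translation (PURExpress), about 100-200 nM. Bound TF was detected with fluorescent anti-GST. Each ungapped 8-mer (which stands for itself and its reverse complement) is scored by the PBM enrichment score (E-score), a modified Wilcoxon-Mann-Whitney statistic from -0.5 to +0.5, computed with the Universal PBM Analysis Suite. Scale: above 0.35 generally sequence-specific binding.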
# Sequence of UniProt P0CE41 (P0CE41 whole entry): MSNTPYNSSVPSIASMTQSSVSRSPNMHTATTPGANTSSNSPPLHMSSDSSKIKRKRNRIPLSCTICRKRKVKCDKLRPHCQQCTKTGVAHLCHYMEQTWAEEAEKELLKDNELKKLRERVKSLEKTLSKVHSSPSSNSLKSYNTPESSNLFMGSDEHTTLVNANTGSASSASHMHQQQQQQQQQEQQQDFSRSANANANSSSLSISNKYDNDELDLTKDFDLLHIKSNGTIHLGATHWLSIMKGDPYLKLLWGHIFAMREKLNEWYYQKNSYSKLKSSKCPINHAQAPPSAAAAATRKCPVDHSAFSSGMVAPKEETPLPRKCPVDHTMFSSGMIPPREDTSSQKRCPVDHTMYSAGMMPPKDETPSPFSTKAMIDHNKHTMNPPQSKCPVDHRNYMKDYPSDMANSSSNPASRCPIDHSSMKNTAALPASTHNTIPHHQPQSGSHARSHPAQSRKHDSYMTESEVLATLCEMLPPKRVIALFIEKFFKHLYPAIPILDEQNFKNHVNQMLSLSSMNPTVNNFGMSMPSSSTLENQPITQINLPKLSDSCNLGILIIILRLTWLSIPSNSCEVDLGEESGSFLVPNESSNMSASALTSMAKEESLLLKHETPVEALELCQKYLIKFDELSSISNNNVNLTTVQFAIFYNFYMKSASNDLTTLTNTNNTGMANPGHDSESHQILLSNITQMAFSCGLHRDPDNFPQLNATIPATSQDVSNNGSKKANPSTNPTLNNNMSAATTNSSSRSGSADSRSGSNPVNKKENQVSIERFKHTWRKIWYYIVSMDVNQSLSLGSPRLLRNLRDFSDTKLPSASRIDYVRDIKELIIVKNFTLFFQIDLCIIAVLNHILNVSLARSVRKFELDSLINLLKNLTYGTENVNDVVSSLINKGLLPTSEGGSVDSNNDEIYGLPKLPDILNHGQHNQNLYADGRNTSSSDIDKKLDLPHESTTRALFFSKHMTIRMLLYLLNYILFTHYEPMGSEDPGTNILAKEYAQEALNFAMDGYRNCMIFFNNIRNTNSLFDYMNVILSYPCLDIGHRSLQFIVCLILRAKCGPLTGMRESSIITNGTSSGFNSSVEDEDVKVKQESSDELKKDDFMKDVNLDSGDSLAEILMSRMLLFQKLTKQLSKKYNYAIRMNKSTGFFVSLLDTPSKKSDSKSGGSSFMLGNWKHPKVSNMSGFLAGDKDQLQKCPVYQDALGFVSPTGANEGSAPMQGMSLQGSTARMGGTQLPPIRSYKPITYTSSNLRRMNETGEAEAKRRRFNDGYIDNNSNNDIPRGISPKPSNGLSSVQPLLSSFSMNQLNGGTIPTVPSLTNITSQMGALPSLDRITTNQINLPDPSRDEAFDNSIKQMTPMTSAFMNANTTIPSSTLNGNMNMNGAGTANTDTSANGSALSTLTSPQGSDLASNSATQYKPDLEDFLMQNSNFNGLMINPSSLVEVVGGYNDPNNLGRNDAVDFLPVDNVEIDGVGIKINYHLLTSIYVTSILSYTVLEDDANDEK
row,Sequence,PBM E-score
1,ACAACCTG,-0.247
2,ATAGATAT,-0.013
3,AGTGTCGC,-0.0563
4,AGTGGGAG,-0.0995
5,ATTTTCCC,0.123
6,CGACTAAG,-0.00674
7,GGCACACC,-0.0137
8,GTATTTAA,1e-05
9,TCTACGAA,-0.279
10,TCTGCAGA,-0.171
11,AGGGCCGA,0.343
12,CGGTAGCA,0.109
13,ACGCGGCA,-0.0566
14,CAGGATGC,-0.0599
15,AGCTGTGC,-0.224
16,AAGCATGC,-0.365
17,GAAAAGAA,-0.0671
18,ACTGAACA,-0.147
19,GAGGATAA,-0.0202
20,TACACATA,-0.167
21,AGGTAGCG,-0.0252
22,AGGGCTGA,-0.214
23,AGCAAGAG,-0.35
24,GCATATGC,-0.163
25,ACGCCGGC,0.405

row,Sequence,PBM E-score
1,AAGTAAAT,0.0671
2,CTGCTTTC,-0.0859
3,ATGGACAC,-0.142
4,AGAATGTA,-0.114
5,CCCGAACA,0.24
6,GGTTGCAA,-0.0933
7,CGAAATTC,0.214
8,AAGTACCT,-0.267
9,ACGATCAC,-0.09
10,ATGCTGGC,-0.24
11,AATAGCCC,0.0355
12,ATTGGTTA,-0.094
13,CGGAAATA,0.487
14,AACTGCTT,-0.134
15,ACGCCGCG,0.202
16,TACGCGGA,0.241
17,CCCTAGAA,-0.196
18,CAGAACGG,0.0275
19,ACACGTAT,-0.0907
20,CGTCCCGA,0.178
21,CTACCGAC,0.107
22,GCCCAGCC,-0.109
23,AAAACGGT,-0.0685
24,ATTTTGAC,-0.0308
25,ACTGATCC,-0.112

row,Sequence,PBM E-score
1,AACCACCC,0.0463
2,GACTATAA,0.0711
3,CTGAAACC,0.0448
4,GCAAAACC,0.12
5,AAACAAAT,-0.00696
6,CAATTACG,-0.106
7,AATCACAG,-0.287
8,AAGGGGAG,-0.0496
9,CGGGTAGA,0.101
10,CATCACCA,-0.216
11,ATTTGCGA,-0.13
12,CCTCCACG,-0.214
13,CTGCAGTA,-0.234
14,TCTAAAAA,-0.129
15,ACCTTTTC,-0.304
16,GTTTGACA,-0.16
17,CCCGCCGC,0.195
18,TGAAAGAA,-0.223
19,AGATCCGG,0.384
20,CCATGTTC,0.0515
21,AAAAGAAT,0.0535
22,GACGCGAA,0.0133
23,ACGCACGT,0.0387
24,ACGATAGA,-0.099
25,ACATAACG,0.168

row,Sequence,PBM E-score
1,CCCCGTGC,0.269
2,CCTTTATA,-0.133
3,TACGACAA,-0.135
4,CGCGTACC,-0.106
5,ACCACTCC,0.215
6,AGAAGATG,-0.166
7,ACAGGTAT,-0.138
8,AGCCTTTA,-0.0851
9,GTGCGAAC,0.0112
10,ATCGCGGA,0.192
11,CTACAGTC,-0.163
12,CCGGCGCG,0.292
13,TATGTAAA,-0.0349
14,ATCATCAG,-0.101
15,AGTATCAA,-0.0862
16,CCGCTTCG,0.154
17,AACAAGCA,-0.0379
18,CGGTTGGA,0.078
19,ATTGCAGG,-0.081
20,AGATGGTG,-0.25
21,ATTGAAAT,0.014
22,TTTACAAA,-0.206
23,GGTGGGCA,-0.252
24,CCACTACG,-0.0463
25,AAACGTCA,-0.183

row,Sequence,PBM E-score
1,ATTCGGTC,0.249
2,GAGACAGA,-0.103
3,CAACGCGA,-0.00276
4,ACGGACGC,0.235
5,ACCGCGCA,0.115
6,GTTGGCCA,-0.0486
7,GAACGAGA,0.00175
8,GATATTTA,0.2
9,CGTCAACC,-0.0449
10,TAGTTGCA,0.0573
11,CAGGGAGG,-0.254
12,CCACGACA,0.02
13,ACGCTGGA,-0.0302
14,CTGTTATC,0.0682
15,ACCTCATG,-0.392
16,GCCGCAGC,0.0353
17,GGAGAATA,0.164
18,CAGAAGCG,0.0711
19,CGTGCGGC,0.119
20,GTTTTAAA,-0.0504
21,GCGGGTGA,0.188
22,GTAATTAC,0.149
23,GTGTCCAA,-0.18
24,ACCGTAGC,0.0783
25,GCACTAAC,-0.0203

row,Sequence,PBM E-score
1,GAAAGGGA,-0.0702
2,AGCGGCTG,-0.0298
3,AATTTTGT,0.0644
4,AGCACGAC,-0.133
5,AATTCAGC,-0.0646
6,ATCCTGGC,-0.0945
7,CACAGTCC,0.01
8,CTGTGCTC,-0.0438
9,GAACTCAA,-0.0607
10,CCCCGCCA,0.16
11,AGTATGCG,-0.051
12,CAGTTATG,-0.153
13,AGGCGTCG,0.0787
14,AACGTGCT,-0.233
15,AAATAATA,0.0534
16,GCACCCGA,0.206
17,AGACTTAT,-0.244
18,ACCAACGG,0.191
19,AGCGGTTG,0.0117
20,CGGCAGAC,0.14
21,AGCAGGGG,-0.191
22,ATGGTGCC,-0.0292
23,GTGACAAA,-0.129
24,GGACCCGA,0.323
25,TAAATACA,-0.0923

row,Sequence,PBM E-score
1,TCGTGAAA,-0.0943
2,AACTCTCG,-0.0162
3,GGACTTTA,0.307
4,TGTGCTAA,0.176
5,AACCTTAG,-0.087
6,TACTTACA,-0.231
7,TAATGAAA,-0.277
8,CAGGCGAG,-0.262
9,AGGACATC,0.0821
10,ATGGTGGG,-0.266
11,CGCGCAGA,0.148
12,GTTCAAGA,-0.165
13,GCCTACCC,-0.143
14,ATCGGAAA,0.426
15,GCCCTACC,-0.0795
16,CCGCCGTC,0.151
17,ATGGAGCA,-0.0564
18,AACTCCTC,0.00689
19,GCGGCATA,0.1
20,CGACTTGA,-0.0543
21,TGACAGCA,-0.223
22,ACGACGTG,-0.305
23,CACACTAG,-0.116
24,GGCTACAA,-0.141
25,ACGAATGA,-0.0426

row,Sequence,PBM E-score
1,AATCGGAC,0.345
2,CCACTGTA,-0.126
3,ACTGAGCG,-0.284
4,GGCGTGAA,-0.0737
5,CAGCGGCA,-0.18
6,GCGTATCA,-0.212
7,AAGTCCAC,-0.127
8,ACCAGTGA,-0.18
9,GAATTGAA,0.0222
10,CTAGCCTC,-0.169
11,ACAGGCTG,-0.256
12,ACGGGAAA,0.174
13,GACAAGGC,-0.0204
14,AATAACTG,-0.026
15,GCTCGAGC,0.0114
16,CTATTTCC,0.397
17,CAGACTGA,-0.154
18,CACACCCC,-0.0788
19,ACATACGT,-0.0308
20,ATAGGTCA,-0.165
21,AGGGGGTG,-0.127
22,CGCCTGAA,0.0154
23,GAATTTAC,0.0854
24,ACAATGAC,-0.202
25,ACCCAAAA,-0.191

row,Sequence,PBM E-score
1,CAAGGCAA,-0.144
2,GGTACGTA,-0.0499
3,TATATACA,-0.0688
4,ACCCGGCG,0.283
5,AGCAGACT,-0.29
6,CCATATCC,0.181
7,AGGGCGAT,-0.196
8,GCCTTCGC,0.103
9,CGTGCGAA,0.015
10,ACCGCAGG,0.0978
11,AACTTCTT,-0.111
12,CATGTGAC,-0.349
13,AACATAGA,-0.083
14,ACGCGAAT,-0.0518
15,GGACTAGA,0.0886
16,ACATGTAT,-0.0134
17,CGCCCTCA,-0.149
18,CGCAAGCA,-0.0513
19,AGATGACC,0.0404
